Test results published in paper PMC8417235.
These are yes or no findings as the source states them, for the method shown. Binding seen in cells or lysates may run through a third protein. Some entries that bind do so weakly or less than the wild type. Tags and fused reporters may be left off the sequences shown.

Sequences of proteins named here, by UniProt entry; tags and fusion partners are left off.
UniProt O00463: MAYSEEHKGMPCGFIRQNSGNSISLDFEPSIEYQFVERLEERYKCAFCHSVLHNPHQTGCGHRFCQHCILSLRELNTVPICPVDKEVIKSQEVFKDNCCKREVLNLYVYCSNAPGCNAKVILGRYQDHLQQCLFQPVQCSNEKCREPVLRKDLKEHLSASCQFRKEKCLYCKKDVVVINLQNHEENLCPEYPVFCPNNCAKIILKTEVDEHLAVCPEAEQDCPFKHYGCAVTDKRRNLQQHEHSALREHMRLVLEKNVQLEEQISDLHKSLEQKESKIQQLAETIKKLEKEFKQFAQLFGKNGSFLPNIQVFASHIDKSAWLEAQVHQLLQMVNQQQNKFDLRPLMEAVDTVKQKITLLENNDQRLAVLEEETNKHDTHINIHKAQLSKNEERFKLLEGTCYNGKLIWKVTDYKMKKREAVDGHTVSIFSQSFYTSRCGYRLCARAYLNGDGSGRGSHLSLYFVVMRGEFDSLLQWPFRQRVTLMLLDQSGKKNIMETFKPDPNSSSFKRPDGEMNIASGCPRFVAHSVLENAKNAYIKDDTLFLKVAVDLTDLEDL
UniProt Q9Y6K9: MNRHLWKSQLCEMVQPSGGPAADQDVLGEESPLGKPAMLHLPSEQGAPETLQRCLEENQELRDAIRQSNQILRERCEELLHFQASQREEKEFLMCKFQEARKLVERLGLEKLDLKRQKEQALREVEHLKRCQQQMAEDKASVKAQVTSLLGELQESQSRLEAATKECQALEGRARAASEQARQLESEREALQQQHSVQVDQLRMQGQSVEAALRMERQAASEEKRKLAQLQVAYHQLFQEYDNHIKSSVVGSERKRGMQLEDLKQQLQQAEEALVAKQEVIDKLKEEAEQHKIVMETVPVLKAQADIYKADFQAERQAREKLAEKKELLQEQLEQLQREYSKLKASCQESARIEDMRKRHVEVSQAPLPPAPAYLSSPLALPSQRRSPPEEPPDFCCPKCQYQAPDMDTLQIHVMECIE
UniProt Q04206: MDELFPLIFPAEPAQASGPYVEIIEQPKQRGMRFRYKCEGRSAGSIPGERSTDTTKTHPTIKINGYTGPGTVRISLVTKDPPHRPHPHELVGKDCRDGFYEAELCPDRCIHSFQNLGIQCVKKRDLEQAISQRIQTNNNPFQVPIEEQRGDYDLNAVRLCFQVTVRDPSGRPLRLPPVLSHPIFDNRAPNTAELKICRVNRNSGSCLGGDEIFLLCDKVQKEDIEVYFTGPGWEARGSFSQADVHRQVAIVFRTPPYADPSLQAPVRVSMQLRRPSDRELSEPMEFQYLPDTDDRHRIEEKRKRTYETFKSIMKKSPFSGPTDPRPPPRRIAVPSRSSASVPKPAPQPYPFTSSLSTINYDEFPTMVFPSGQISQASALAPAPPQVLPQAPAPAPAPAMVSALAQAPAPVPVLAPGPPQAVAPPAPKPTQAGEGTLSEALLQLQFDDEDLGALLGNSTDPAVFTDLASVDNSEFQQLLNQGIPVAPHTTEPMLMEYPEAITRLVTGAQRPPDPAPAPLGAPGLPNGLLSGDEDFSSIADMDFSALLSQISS

How the values were obtained:
Experiment in all cases: co-IP; HEK293T cells cotransfected with the expression plasmids, 24 h; lysates incubated at 4°C for 4 h with anti-Flag agarose beads, washed 3-4 times, immunoblot (Figure 4A,B,D,E)
Flag-tagged TRAF5 = Flag-tagged TRAF5 (UniProt O00463)
Flag-tagged TRAF2 = target: T1, Flag-tagged TRAF2 (UniProt Q12933)
T1 sequence: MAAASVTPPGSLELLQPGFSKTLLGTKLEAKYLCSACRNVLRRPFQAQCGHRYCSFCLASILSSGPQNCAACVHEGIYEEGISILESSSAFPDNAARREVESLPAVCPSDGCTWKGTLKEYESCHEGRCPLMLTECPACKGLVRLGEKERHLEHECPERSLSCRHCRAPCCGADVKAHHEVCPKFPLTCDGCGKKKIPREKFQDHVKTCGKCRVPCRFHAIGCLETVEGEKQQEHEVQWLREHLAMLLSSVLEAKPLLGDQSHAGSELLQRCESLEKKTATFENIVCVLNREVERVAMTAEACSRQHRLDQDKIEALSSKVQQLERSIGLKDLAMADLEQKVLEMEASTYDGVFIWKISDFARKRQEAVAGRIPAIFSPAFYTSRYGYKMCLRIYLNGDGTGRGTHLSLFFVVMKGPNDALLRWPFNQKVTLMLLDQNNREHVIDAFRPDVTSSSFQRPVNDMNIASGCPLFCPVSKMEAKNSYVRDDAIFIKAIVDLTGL

Flag-tagged NEMO = Flag-tagged NEMO (UniProt Q9Y6K9)
Flag-tagged IKKβ = target: T2, Flag-tagged IKKβ (UniProt O14920)
T2 sequence: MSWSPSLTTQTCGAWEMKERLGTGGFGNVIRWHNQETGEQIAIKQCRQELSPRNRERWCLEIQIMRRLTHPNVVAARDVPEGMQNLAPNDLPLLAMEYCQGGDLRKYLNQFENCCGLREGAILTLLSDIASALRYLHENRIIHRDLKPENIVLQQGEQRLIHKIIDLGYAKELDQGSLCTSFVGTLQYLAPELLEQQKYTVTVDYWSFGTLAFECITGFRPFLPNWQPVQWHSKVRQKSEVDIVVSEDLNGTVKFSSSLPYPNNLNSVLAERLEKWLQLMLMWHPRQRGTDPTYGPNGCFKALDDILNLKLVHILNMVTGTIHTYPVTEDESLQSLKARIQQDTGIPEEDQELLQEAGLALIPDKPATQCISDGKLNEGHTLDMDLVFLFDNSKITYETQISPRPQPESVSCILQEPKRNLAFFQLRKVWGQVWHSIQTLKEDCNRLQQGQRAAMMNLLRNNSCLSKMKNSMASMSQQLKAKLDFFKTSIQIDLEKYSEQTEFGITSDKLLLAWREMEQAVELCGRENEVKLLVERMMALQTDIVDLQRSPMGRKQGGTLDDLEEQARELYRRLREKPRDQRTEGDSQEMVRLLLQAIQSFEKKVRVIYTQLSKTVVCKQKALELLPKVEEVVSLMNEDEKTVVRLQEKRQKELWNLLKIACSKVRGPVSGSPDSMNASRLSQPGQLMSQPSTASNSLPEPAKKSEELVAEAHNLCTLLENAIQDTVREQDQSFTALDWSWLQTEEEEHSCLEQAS

Flag-tagged TAK1 = target: T3, Flag-tagged TAK1 (UniProt O43318)
T3 sequence: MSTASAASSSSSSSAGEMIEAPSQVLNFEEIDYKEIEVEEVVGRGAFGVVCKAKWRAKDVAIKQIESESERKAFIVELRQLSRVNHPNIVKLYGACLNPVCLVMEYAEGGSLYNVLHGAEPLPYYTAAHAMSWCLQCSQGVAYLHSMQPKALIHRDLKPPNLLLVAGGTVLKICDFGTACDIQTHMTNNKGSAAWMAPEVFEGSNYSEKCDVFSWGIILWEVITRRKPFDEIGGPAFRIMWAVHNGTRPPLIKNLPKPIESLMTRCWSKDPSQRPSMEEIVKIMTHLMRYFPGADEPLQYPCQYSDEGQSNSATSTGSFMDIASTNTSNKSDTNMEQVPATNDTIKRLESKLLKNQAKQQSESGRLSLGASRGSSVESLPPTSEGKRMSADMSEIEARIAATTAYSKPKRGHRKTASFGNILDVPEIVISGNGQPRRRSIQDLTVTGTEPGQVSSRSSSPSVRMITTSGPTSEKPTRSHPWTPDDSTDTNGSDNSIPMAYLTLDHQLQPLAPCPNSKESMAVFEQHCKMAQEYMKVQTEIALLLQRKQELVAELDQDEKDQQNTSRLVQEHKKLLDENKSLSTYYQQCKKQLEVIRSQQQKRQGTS

Flag-tagged IKKα = target: T4, Flag-tagged IKKα (UniProt O15111)
T4 sequence: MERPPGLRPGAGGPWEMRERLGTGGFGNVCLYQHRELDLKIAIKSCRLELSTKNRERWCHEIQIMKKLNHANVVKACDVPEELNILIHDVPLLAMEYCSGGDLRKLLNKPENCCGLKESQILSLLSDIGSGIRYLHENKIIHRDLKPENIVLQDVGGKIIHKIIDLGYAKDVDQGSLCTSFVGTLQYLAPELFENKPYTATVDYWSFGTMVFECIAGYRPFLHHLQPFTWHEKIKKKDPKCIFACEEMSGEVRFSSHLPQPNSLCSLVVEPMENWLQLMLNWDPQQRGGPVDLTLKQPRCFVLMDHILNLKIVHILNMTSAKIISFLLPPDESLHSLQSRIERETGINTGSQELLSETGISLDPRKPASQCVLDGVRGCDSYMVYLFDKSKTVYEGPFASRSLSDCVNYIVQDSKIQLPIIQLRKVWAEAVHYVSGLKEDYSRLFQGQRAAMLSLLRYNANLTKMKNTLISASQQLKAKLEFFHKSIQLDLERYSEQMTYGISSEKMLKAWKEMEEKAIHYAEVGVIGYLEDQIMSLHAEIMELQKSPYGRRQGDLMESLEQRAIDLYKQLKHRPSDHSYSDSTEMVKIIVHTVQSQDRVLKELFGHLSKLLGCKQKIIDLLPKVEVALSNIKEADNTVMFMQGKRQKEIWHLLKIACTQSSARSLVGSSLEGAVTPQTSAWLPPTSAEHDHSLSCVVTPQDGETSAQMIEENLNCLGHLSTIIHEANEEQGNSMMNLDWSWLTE

Flag-tagged P65 = Flag-tagged P65 (UniProt Q04206)

binding (Flag-tagged TRAF5): no binding | binding (Flag-tagged TRAF2): no binding | binding (Flag-tagged NEMO): no binding | binding (Flag-tagged IKKβ): no binding | binding (Flag-tagged TAK1): binds weakly | binding (Flag-tagged IKKα): binds weakly | binding (Flag-tagged P65): no binding
B1: Myc-tagged ZDHHC11 (protein, UniProt Q9H8X9 1-412)
chain: MDTRSGSQCSVTPEAILNNEKLVLPPRISRVNGWSLPLHYFQVVTWAVFVGLSSATFGIFIPFLPHAWKYIAYVVTGGIFSFHLVVHLIASCIDPADSNVRLMKNYSQPMPLFDRSKHAHVIQNQFCHLCKVTVNKKTKHCISCNKCVSGFDHHCKWINNCVGSRNYWFFFSTVASATAGMLCLIAILLYVLVQYLVNPGVLRTDPRYEDVKNMNTWLLFLPLFPVQVQTLIVVIIGMLVLLLDFLGLVHLGQLLIFHIYLKAKKMTTFEYLINNRKEESSKHQAVRKDPYVQMDKGVLQQGAGALGSSAQGVKAKSSLLIHKHLCHFCTSVNQDGDSTAREGDEDPCPSALGAKARNSRLICRRLCQFSTRVHPDGGSMAQEADDAPSISTLGLQQETTEPMKTDSAESED
